The chains are these.
B1: LINE1-mini (parent)
chain: GGCAGAGCUCAACACAGCGUGGCAAAGUGGCUGUGGCUAGACUGCC

Read counts are not given, so values of variants with three or more changes are uncertain.

Variants of B1 are the subject of this data set. Nature of the data set: self-cleavage, relative activity (ratio to wild type); higher = more cleavage; in vitro, sequencing; the parent is a self-cleaving ribozyme.
Take G2A G21A C23U G44C: the self-cleavage stood at 1.46.

Regarding U28G U34G U38A, the self-cleavage was 0.19.

In the case of C15U A25C C42A, the self-cleavage is 0.14.

G7U G17U G40U: the self-cleavage stood at 0.15.

As to G1U G33C C45A, the self-cleavage is 0.03.

For G1C C13U C23G U32C G40C, the self-cleavage amounted to 0.06.

In the case of G7C C8U C18G G40A U43C, the self-cleavage turned out to be 0.05.

With C3U A16C C31U, the self-cleavage came out at 0.06.

For G5U C18U U34C, the self-cleavage was found to be 0.05.

C3U A4C U9G: the self-cleavage was determined as 0.5.

As for A12C G30U C37U, the self-cleavage was found to be 0.01.

G1C G21U G22A: the self-cleavage amounted to 0.23.

On to G2C C8A A25U U32C U38G C42U C45A, for which the self-cleavage worked out at 0.02.

As to G5U G21A G30A G33C, the self-cleavage is 0.36.

G7U C13A C15A: the self-cleavage was found to be 0.69.

With G1U C8A C10U C15G C23U G33A G36C, the self-cleavage was found to be 0.

Turning to A14U G21C A26C C37A G40U, the self-cleavage worked out at 0.02.

Take G1C A16C U20A: the self-cleavage came out at 0.01.

As for G7U U9G C13U C18A G30U, the self-cleavage turned out to be 0.15.

In the case of G1C G5A G33C, the self-cleavage is 0.01.

Consider C10A G17U A26U, for which the self-cleavage was determined as 0.01.

With A4C G5C U28G A39U, the self-cleavage stood at 0.

C15U U20G C46G: the self-cleavage was determined as 0.24.

A14U G21U C23U G29C: the self-cleavage came to 0.24.

For the variant C3G C13G U28A, the self-cleavage amounted to 0.65.

Take G17A G22C U38C U43C: the self-cleavage was found to be 0.02.

As for C10U C15U A16C G22C A25U U32C C42U, the self-cleavage is 0.01.

On to G5U A16U G22A U38G, for which the self-cleavage worked out at 0.01.

Regarding G1C C18A A26G G27A, the self-cleavage came out at 0.01.

C10A A12C C15A U20G G27C: the self-cleavage stood at 0.01.

As to G2C C31G G33C, the self-cleavage amounted to 0.01.

Consider A6G A26C U43C, for which the self-cleavage was found to be 0.08.

For the variant U9A C15G G40A, the self-cleavage worked out at 0.07.

Regarding C31U C37U U43G C46G, the self-cleavage was determined as 0.06.

In the case of C3A G22C G30C C42U G44A C45A, the self-cleavage amounted to 0.06.

On to C10G G21C C42A, for which the self-cleavage was determined as 0.02.

Take C3U A6G A11C C13U G19U: the self-cleavage stood at 0.01.

As for G2C A26C U34A, the self-cleavage stood at 0.01.

As for C3U U9G U32C U34A C42G, the self-cleavage was determined as 0.05.

With G1C C8A A12C A41U G44U, the self-cleavage is 0.02.

With G1C A4U C8U C10U C23U U38C, the self-cleavage turned out to be 0.02.

As for U9G U28C C31A, the self-cleavage was determined as 0.2.

Regarding C13G C15G G40A, the self-cleavage is 0.03.

On to C3U C37U G40U, for which the self-cleavage was 0.58.

With A6C C10G C13U G40U, the self-cleavage came out at 0.02.

C3A A4C A16U C42G: the self-cleavage worked out at 0.03.

As to U9A C18G G21A, the self-cleavage is 0.07.

For A4C G35U A39U, the self-cleavage was found to be 0.06.

Turning to C13A C37U C42G, the self-cleavage was found to be 0.01.

For C15G A16U A24U, the self-cleavage came to 0.04.

Consider G7A C15U G44C, for which the self-cleavage was found to be 0.14.

Take G7C C8A G17A U28C C46A: the self-cleavage came to 0.74.

For the variant U28G U32C C37A G40U, the self-cleavage is 0.09.

On to U32C A41U U43G C45U, for which the self-cleavage was 0.03.

Regarding U34C C37U A41U, the self-cleavage amounted to 0.04.

With A25U G35A A41C, the self-cleavage worked out at 0.01.

Take G1A C10U G21A G33U: the self-cleavage is 0.06.

On to A11G G17C A41U, for which the self-cleavage was determined as 0.01.

Consider G1U A12C A16U G21A A24G G44C, for which the self-cleavage came to 0.02.

As for A6G G7A A16C A41C U43G C45A, the self-cleavage amounted to 0.03.

In the case of G22C G30U G35C, the self-cleavage stood at 0.05.

As to C3U A4G U20A U32G G35U, the self-cleavage was 0.07.

Turning to U9A G27U G29A A39C, the self-cleavage is 0.01.

Turning to C3U A4U C10G U32G U43G, the self-cleavage stood at 0.01.

A14C G17U C18G: the self-cleavage was 0.11.

As for C15G C31A G33C G35C, the self-cleavage is 0.04.

C8G C10U A11U C31U: the self-cleavage came out at 0.01.

With C8U U9G C13A, the self-cleavage stood at 0.13.

For the variant G27U G29U U32A, the self-cleavage is 0.68.

For the variant G17U G19U G22C G29C, the self-cleavage was found to be 0.08.

Regarding G5A C10A C42G, the self-cleavage is 0.05.

For the variant A16C A26C C37A, the self-cleavage came out at 0.04.

With G1A C8A G27U A41C, the self-cleavage is 0.07.

On to U20C C23U C46A, for which the self-cleavage came to 0.3.

For the variant G2A C10G C13U G21C, the self-cleavage was 0.02.

On to C10U C18G U20G A39U, for which the self-cleavage turned out to be 0.21.

With C18U A39G G44A, the self-cleavage is 0.23.

On to U9C G17A G35A A39U G44A C46U, for which the self-cleavage is 0.03.

As for A16U G27A G29A, the self-cleavage amounted to 0.68.

Turning to C13A A16G C37U, the self-cleavage came to 0.02.

G1A G5A U9A C31A G44A: the self-cleavage stood at 0.23.

In the case of C23A G40C C46U, the self-cleavage was 0.05.

As to C3G U20A G21A C46A, the self-cleavage is 0.16.

Turning to A12U U34G G36U C46A, the self-cleavage was 0.03.

Consider U9G C10G C18U C37U, for which the self-cleavage came to 0.01.

Take G17C A25G G29C: the self-cleavage was found to be 0.07.

On to A12U C23G G29U, for which the self-cleavage was determined as 0.09.

For G1U G19U U43C, the self-cleavage was 0.03.

As to U20G C23U U38C, the self-cleavage is 0.28.

Regarding G2A A6G A12U G21C A41G C42U, the self-cleavage is 0.1.

Take A14G U38C A39G: the self-cleavage came to 0.

For G19U C31U U43C, the self-cleavage worked out at 0.03.

With G2A A11U A16C G22A U43G, the self-cleavage was 0.03.

Take A6C A16C G19A G22U A41U: the self-cleavage was determined as 0.02.

Turning to A11C A12C A25U G30U, the self-cleavage was determined as 0.03.

Regarding U9C G27A G30A, the self-cleavage was 0.01.

For C10A C13A G17C G22C U38G C45U, the self-cleavage was found to be 0.

In the case of G7C C8A C15A, the self-cleavage is 0.36.

With C13A A14G C15A U20C A39U, the self-cleavage was found to be 0.03.

For the variant A11G G44A C45G, the self-cleavage was found to be 0.

For C3A C23G G40A, the self-cleavage was determined as 0.12.

As to G2U C3G C13U A25C G30U, the self-cleavage worked out at 0.08.

Consider C10A A41C C42U C45G, for which the self-cleavage amounted to 0.01.

As to C15G U34C A39G C45G, the self-cleavage amounted to 0.01.

As to A4U G5U C10U A26C, the self-cleavage worked out at 0.02.

On to G5A C8U A11U G33U G35U, for which the self-cleavage was determined as 0.

G5U C31G C42U: the self-cleavage came out at 0.01.

For the variant C15A A39C A41U, the self-cleavage came out at 0.05.

A24C G35C C45A: the self-cleavage worked out at 0.08.

Regarding G5A A26U G27C G29U C31A, the self-cleavage came out at 0.02.

Consider C3G C15A U20A G22C G40U, for which the self-cleavage worked out at 0.08.

Consider G17C G33A C37A, for which the self-cleavage amounted to 0.04.

As for G19U A39G G44U, the self-cleavage amounted to 0.1.

With C8U A12C A24U G44U C46U, the self-cleavage was 0.01.

On to A6U C15G A26U, for which the self-cleavage is 0.05.

As for C3G G17A G33U U34A C45G C46U, the self-cleavage worked out at 0.04.

Take C3U A24C A26U G44U: the self-cleavage came out at 0.07.

In the case of C15A G19A G27C G33C, the self-cleavage was determined as 0.01.

For the variant A11U G22A A41C, the self-cleavage is 0.01.

Regarding C8A C13G U34A C37U C42G, the self-cleavage stood at 0.49.

As for C10G G19U U28C A41C, the self-cleavage is 0.02.

Consider A24C U34C G44C, for which the self-cleavage was determined as 0.07.

In the case of G1A A6C C8G U28C, the self-cleavage turned out to be 0.04.

Turning to G2C C10A G29C, the self-cleavage turned out to be 0.03.

On to A4U U20G G30U A39C, for which the self-cleavage was 0.03.

In the case of G2C C15G A25C, the self-cleavage was 0.02.

Consider G2U A14G G30U G33C G40U G44A, for which the self-cleavage amounted to 0.01.

With C10A A11C A14C G21A U38A, the self-cleavage stood at 0.

As to C15G G19A U34G, the self-cleavage is 0.02.

In the case of C3A U9C A24C, the self-cleavage was 0.02.

For the variant C8A C18G G35A, the self-cleavage was determined as 0.22.

Consider A11G G19A A41U, for which the self-cleavage was 0.01.

Consider G2C G29U G35C, for which the self-cleavage is 0.1.

With G2C C10A A25U A26U C42G, the self-cleavage stood at 0.02.

Consider G7C C8A G21C C23A, for which the self-cleavage amounted to 0.17.

Take G1A C31A G40C: the self-cleavage was determined as 0.08.

Turning to A6U C15U A16U A41G, the self-cleavage is 0.08.

Regarding C15A A26C G27A U43G, the self-cleavage was 0.

In the case of G7A C8U C18G C23A G27A, the self-cleavage worked out at 0.84.

For the variant G7A G19C G21U C45G, the self-cleavage is 0.04.

Consider G5U C31U U38G U43G C45U, for which the self-cleavage stood at 0.02.

As to G2C G22U A24U, the self-cleavage came to 0.

With A12C C15A A25U U38G A39U, the self-cleavage was 0.01.

Take A6G G17C A39U A41G: the self-cleavage came to 0.03.

With G1C A11U A24G A41G, the self-cleavage was 0.01.

In the case of C3U G5U G19A G35C C42U, the self-cleavage is 0.05.

Regarding G29U U38C C45U, the self-cleavage amounted to 0.55.

Consider G22A A25C U28G A39C, for which the self-cleavage worked out at 0.05.

As for G21U G22A U34G, the self-cleavage was 0.33.

For G2U C10A G44A, the self-cleavage came to 0.02.

In the case of A6U A12C A16C A24C, the self-cleavage was determined as 0.02.

G2U C23G G30A A41G U43G: the self-cleavage is 0.

C8U G19C C31A A41C: the self-cleavage stood at 0.01.

As for A4G C18U G29U U34C C45A, the self-cleavage was 0.27.

U20A G22A C31A G35U: the self-cleavage is 0.02.

On to G1A C3A A11G A25C C46U, for which the self-cleavage is 0.07.

Take C3A C18A C42A: the self-cleavage was determined as 0.02.

Consider C13G C23A C31U U34A C46U, for which the self-cleavage was 0.04.

G17A A24G G35A A39G: the self-cleavage was 0.03.

Turning to A6G A11U G19U, the self-cleavage worked out at 0.02.

G7A C13U A14C C15A U20C: the self-cleavage was determined as 0.16.

As for C15U G21C C46A, the self-cleavage was 0.48.

Consider A6C C8A C42A G44A, for which the self-cleavage amounted to 0.12.

For G2C G21U G33U A39C, the self-cleavage turned out to be 0.06.

For the variant G5C C18A C46G, the self-cleavage was found to be 0.03.

As for U20A A25G A26U G40U, the self-cleavage was 0.02.

Regarding G1C C3U G5A A12U A14C G27A, the self-cleavage turned out to be 0.08.

Source of the values: the RNAGym collection of RNA variant scans (doi:10.7554/elife.90254).
